Data from the supplement of paper PMC11417369.
The other results are listed elsewhere or left out.

The sequences below were run on PfHDP1 homeodomain (GST-tagged) (assay: gcPBM binding intensity (ln(normalized median fluorescence intensity)); higher = stronger DNA binding).
Summary of the method: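 Alexa488 anti-GST antibody, scanned at 488 nm, detected GST-tagged P. falciparum DNA-binding domains that had been expressed in E. coli and incubated for 1 h on an Agilent 4 × 180k array. The array carried primer-extended double-stranded 36-bp intergenic genomic probes and negative controls. Binding intensity is the highest Masliner-normalised natural-log median intensity across replicate spots of either orientation of each probe.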

Sequence	gcPBM binding intensity (ln)
ATATCTGAAGTGTAAAGTACATATATATATTCATAT [XGTACX_site4612]	6.69
TATATTTTTTAATTCACACAAAAATGAAAAATATTT [CACACA_site6001]	6.16
ATTTTATCAAGAGGAAGTACATTACCCCATGAAAAA [XGTACX_site8295]	6.44
AATAAAAATATATCCACACACATATATATATCTGTA [CACACA_site4481]	6.54
TATATTATATTTTTATGTACATATATGTTTTTTTTT [XGTACX_site8239]	6.6
AATATAAATAATAGTAGTACATATATATCTCAGAAA [XGTACX_site4055]	6.38
AATGGAGTTTATAAGTATAAACGAGGGATACCTAAA [XGTACX_negctrl_site483]	6.77
TTATGTTGTAAATGCACACATACATATACGCAGTTT [CACACA_site3015]	9.92
TAAATAAATTTATACACACACACACCCATATATATA [CACACA_site849]	7
AAAAAATCAAAACACACACACACACTAGAAAAAAAA [CACACA_site4909]	6.8
ATATAAGCGTATACATGTACATATATATCTTTGTAA [XGTACX_site2742]	6.7
TATGTAAATCTCTTAAGAATTCGCTATATCTCTTTT [CACACA_negctrl_site1180]	6.08
AGGCTACGAATAGAATGTACCCGAAATAAGGAATAT [XGTACX_site6012]	6.57
CTAAAATACGGACACACACACACATATATATATATA [CACACA_site6138]	9.22
AAAAAAAAAAAAAACACACACACAAAAAAAAATATA [CACACA_site1104]	6.5
ATTATCTCCGCCATGTGGACACATATAAGACATTTT [XGTACX_site2889]	6.9
ATTGTATATAAATGAGTGCATACTATGTTGTTCTTA [GTGCAC_site9678]	7.8
GAGTAAATAAATAAATGTACATATATATATATTATC [XGTACX_site8466]	6.59
TATAATAAATATTAACGTACTCATATATATATATAT [XGTACX_site3871]	9.26
ATACATAAATATTGATGTACTCATTTAATATATTAT [XGTACX_site3992]	6.33
AATATATATATATATATATATTTTTGTTAGAATATG [XGTACX_negctrl_site58]	7.09
GCAAGGAAATAATTGATAATATATATATATATATAT [GTGCAC_negctrl_site400]	9.2

Sequence	gcPBM binding intensity (ln)
ATCTAAATTTTTCCATGTACATATACTTTTATGCAT [XGTACX_site2683]	7.08
TTATAATATGGATACACACACATATATAAATATATA [CACACA_site5314]	6.48
AAAAAATAAATAAATACACACAAATCTATATTTATA [CACACA_site7243]	6.22
AAATTAGAAATACCTACACACTTATCAAAATAAATT [CACACA_site7132]	5.95
ATAATTATGAAGCATACATGCATGTCCTGGCTTAAA [TGCATGCA_site491]	6.44
AAAATATGTAGACACATACACACATATATATATATA [CACACA_site1221]	9.22
TATATGTATGTTTGTTTGTTTGTATTTTTTAAGGTA [XGTACX_negctrl_site619]	6.85
TTTTCTTTTTCCAAAAGTACGTAATTTAAACATTTT [XGTACX_site2066]	6.43
TTTTTTTTTTCAAATGCATGCAAAAAAAAAAAAATA [TGCATGCA_site945]	6.13
CTAAGAAAAAATAAAGCACACAAATATTTTAAAAAC [CACACA_site9094]	6.59
AAATTAAATAAATTTACACACTAAAAATTACAGATA [CACACA_site4722]	6.28
CATTATGTCGTAAATACACACATACAGATACATACA [CACACA_site4880]	6.7
TTTTTATTTGGTTGTGTACACATATATATATATATA [CACACA_site5844]	9.33
AAAAAACACCCACATACACACAAAAATGTTATAAAT [CACACA_site81]	6.84
GTTATATATAATAATTGTACAAAATTAAATATAACT [XGTACX_site4189]	6.38
TAACTATATTTTTACTGTACAAAAAAATTAAATAAT [XGTACX_site1765]	6.46
ATATTAATTCTACATTGTACACATGAAAAAATATAA [XGTACX_site8759]	6.74
AAAACACAAAAAAAATGTACACATATATATATATAT [XGTACX_site8509]	9.11
AAAAAGAATAAATAAATATAAATAAATAAATATATA [GTGCAC_negctrl_site336]	6.19
ACATATAGAAGTATCTATAAACAGTGATAGCATTTT [CACACA_negctrl_site1122]	6.27
CAATCTTTTACGAATACACACACATAAAGAAAAAAA [CACACA_site8367]	6.85
AATTTTTTATATGTCACACATTTGTTATTATTATTA [CACACA_site4197]	6.51
